# Reference: a collection of fitness landscapes (doi:10.1126/science.1257360)
# This is one part of the list.
# B1: PhoQ; a variant is named by its letters at X, in order, P23837 (parent)
# chain: MKKLLRLFFPLSLRVRFLLATAAVVLVLSLAYGMVALIGYSVSFDKTTFRLLRGESNLFYTLAKWENNKLHVELPENIDKQSPTMTLIYDENGQLLWAQRDVPWLMKMIQPDWLKSNGFHEIEADVNDTSLLLSGDHSIQQQLQEVREDDDDAEMTHSVAVNVYPATSRMPKLTIVVVDTIPVELKSSYMVWSWFIYVLSANLLLVIPLLWVAAWWSLRPIEALAKEVRELEEHNRELLNPATTRELTSLVRNLNRLLKSERERYDKYRTTLTDLTHSLKTPLXXLQXXLRSLRSEKMSVSDAEPVMLEQISRISQQIGYYLHRASMRGGTLLSRELHPVAPLLDNLTSALNKVYQRKGVNISLDISPEISFVGEQNDFVEVMGNVLDNACKYCLEFVEISARQTDEHLYIVVEDDGPGIPLSKREVIFDRGQRVDTLRPGQGVGLAVAREITEQYEGKIVAGESMLGGARMEVIFGRQHSAPKDE
# Variants of: B1
# Assay: enrichment ratio after two sorts for PhoP signalling (ratio (wild type AVST 3.29)); higher = more functional
# Conditions: with PhoP (E. coli)
row,Variant,enrichment ratio
1,LNMD,≤ 0.25
2,GNLL,15.3
3,WRQL,≤ 0.25
4,IFWT,≤ 0.25
5,IMTC,≤ 0.25
6,HVSD,≤ 0.25
7,TPGP,≤ 0.25
8,HHCT,≤ 0.25
9,SAGP,≤ 0.25
10,VWED,≤ 0.25
11,KLKM,≤ 0.25
12,VYRS,0.255
13,RIRW,≤ 0.25
14,YFVT,≤ 0.25
15,GYAR,≤ 0.25
16,FQKH,≤ 0.25
17,AAMI,3.3
18,KRTC,≤ 0.25
19,KFKI,≤ 0.25
20,WECT,≤ 0.25
21,NMRE,≤ 0.25
22,GWWP,≤ 0.25
23,MLNN,≤ 0.25
24,KLGK,≤ 0.25
25,MLCY,≤ 0.25
26,IPLN,≤ 0.25

row,Variant,enrichment ratio
1,AVLM,9.14
2,GFKL,≤ 0.25
3,FIEV,≤ 0.25
4,VRAH,≤ 0.25
5,AMFC,≤ 0.25
6,LYEA,≤ 0.25
7,FDEI,≤ 0.25
8,YLSW,≤ 0.25
9,RLFF,≤ 0.25
10,IEQF,≤ 0.25
11,TSRY,≤ 0.25
12,TPDC,≤ 0.25
13,ENSF,≤ 0.25
14,DRSQ,≤ 0.25
15,FSDL,≤ 0.25
16,PHNK,≤ 0.25
17,YNWL,≤ 0.25
18,PSHP,≤ 0.25
19,RCTV,≤ 0.25
20,PRPD,≤ 0.25
21,FNTL,≤ 0.25
22,FLPP,≤ 0.25
23,KERN,≤ 0.25
24,YFPH,≤ 0.25
25,HWHC,≤ 0.25
26,HCGK,≤ 0.25

row,Variant,enrichment ratio
1,RPRV,≤ 0.25
2,PWVR,≤ 0.25
3,LSEG,≤ 0.25
4,SYRK,≤ 0.25
5,VALS,5.15
6,STNF,12.6
7,ICPA,≤ 0.25
8,DSFS,≤ 0.25
9,YSTS,≤ 0.25
10,RCTE,≤ 0.25
11,HLAL,1.23
12,VVPW,≤ 0.25
13,SCYE,0.33
14,IYYC,≤ 0.25
15,SYFC,≤ 0.25
16,ACFQ,≤ 0.25
17,MGWV,6.77
18,YSKK,≤ 0.25
19,FLRI,≤ 0.25
20,FQKD,≤ 0.25
21,MCLG,6.87
22,LPAN,≤ 0.25
23,SIMT,7.68
24,HIVN,≤ 0.25
25,YPRM,≤ 0.25
26,TNRY,≤ 0.25

row,Variant,enrichment ratio
1,EDYS,≤ 0.25
2,ERTH,≤ 0.25
3,QGDI,≤ 0.25
4,IAAM,≤ 0.25
5,PMDI,≤ 0.25
6,RIGV,≤ 0.25
7,SWFI,≤ 0.25
8,YRFE,≤ 0.25
9,MLQH,≤ 0.25
10,NFFL,≤ 0.25
11,HPQW,≤ 0.25
12,PERH,≤ 0.25
13,DLYN,≤ 0.25
14,EKIP,≤ 0.25
15,FEQK,≤ 0.25
16,HAGS,≤ 0.25
17,AETW,11.3
18,FCAY,≤ 0.25
19,AQHA,≤ 0.25
20,VLVM,≤ 0.25
21,YNGP,≤ 0.25
22,VSDN,≤ 0.25
23,VADC,≤ 0.25
24,ESSG,≤ 0.25
25,SYVA,≤ 0.25
26,DNNN,≤ 0.25

row,Variant,enrichment ratio
1,SSHT,≤ 0.25
2,LHEE,≤ 0.25
3,YNEY,≤ 0.25
4,RVVW,≤ 0.25
5,PAVQ,≤ 0.25
6,YNRP,≤ 0.25
7,FDSK,≤ 0.25
8,YADI,≤ 0.25
9,EMFI,≤ 0.25
10,YHMK,≤ 0.25
11,TGYG,9.68
12,QDFK,≤ 0.25
13,YEIC,1.24
14,PKCA,≤ 0.25
15,QVLH,≤ 0.25
16,EYIS,≤ 0.25
17,IFME,≤ 0.25
18,IQFM,≤ 0.25
19,GCYQ,≤ 0.25
20,PKDG,≤ 0.25
21,PQWS,≤ 0.25
22,NFVR,≤ 0.25
23,LSCR,≤ 0.25
24,HLNA,≤ 0.25
25,SWNS,≤ 0.25
26,AHAG,≤ 0.25

row,Variant,enrichment ratio
1,SQAM,21.4
2,QFHH,≤ 0.25
3,YMAE,0.497
4,QNLW,≤ 0.25
5,ETGF,≤ 0.25
6,QFMI,0.792
7,YVYG,≤ 0.25
8,AVCI,21.8
9,FCRE,≤ 0.25
10,DMIQ,≤ 0.25
11,QYHK,≤ 0.25
12,SYQR,≤ 0.25
13,TKTQ,12.6
14,FQDM,≤ 0.25
15,WLPM,≤ 0.25
16,IAKN,≤ 0.25
17,YLAI,≤ 0.25
18,YYYC,≤ 0.25
19,GGIY,2.45
20,IPCL,≤ 0.25
21,GMSY,1.48
22,AHGT,≤ 0.25
23,RGNT,≤ 0.25
